Residue numbers refer to the chain shown, from its start. Names and notes keep the numbering of the source.
B1: recombinant human Factor B wt (FB) with His Tag and Precission site (enzyme)
chain: KIVLDPSGSMNIYLVLDGSDSIGASNFTGAKKCLVNLIEKVASYGVKPRYGLVTYATYPKIWVKVSEADSSNADWVTKQLNEINYEDHKLKSGTNTKKALQAVYSMMSWPDDVPPEGWNRTRHVIILMTDGLHNMGGDPITVIDEIRDLLYIGKDRKNPREDYLDVYVFGVGPLVNQVNINALASKKDNEQHVFKVKDMENLEDVFYQMIDESQSLSLCGMVWEHRKGTDYHKQPWQAKISVIRPSKGHESCMGAVVSEYFVLTAAHCFTVDDKEHSIKVSVGGEKRDLEIEVVLFHPNYNINGKKEAGIPEFYDYDVALIKLKNKLKYGQTIRPICLPCTEGTTRALRLPPTTTCQQQKEELLPAQDIKALFVSEEEKKLTRKEVYIKNGDKKGSCERDAQYAPGYDKVKDISEVVTPRFLCTGGVSPYADPNTCRGDSGGPLIVHKRSRFIQVGVISWGVVDVCKNQKRQKQVPAHARDFHINLFQVLPWLKEKLQDEDLGFL
notes: also called wild type Bb
B2: recombinant human FB with D279G with His Tag and Precission site (enzyme)
chain: B1 chain with D20G
notes: Cleaved by factor D in the assay; the Bb subunit stays on C3b; also called FB (D279G); single mutated Bb D279G

Key:
[1] = biological target: T1, plasma purified C3b (Complement Technology), biotinylated at cysteine 1010 with Maleimide-PEG3-biotin (human, UniProt P01024 23-667; P01024 partial chain, limits assumed, cysteine 1010 biotinylated (Maleimide-PEG3-biotin)); assay: BLI, biotinylated C3b on streptavidin sensor, FB with factor D, Ni2+ buffer, dissociation of C3bBb, single exponential fit
T1 construct: Loaded on streptavidin BLI sensors; also called Complement C3 beta chain (C3b); C3 fragment
Source text: Correction of the BLI trace was identical to the experiment in presence of magnesium. Different from the Mg2+ containing C3bBb complexes, only one species was detected during dissociation and a single exponential decay (A*exp(((−1)*B)*x)) was used for analysis.

[2] = biological target: T1, plasma purified C3b (Complement …); assay: BLI, biotinylated C3b on streptavidin sensor, FB with factor D, Mg2+ buffer, dissociation of C3bBb, double exponential fit
Method: To analyze stability of the C3bBb complexes having the different Bb subunits, C3b cysteine 1010 was biotinylated by incubating plasma purified C3b (Complement Technology) overnight at 4° C. in presence of 5 molar excess Maleimide-PEG3-biotin (Thermo Fisher Scientific) followed by purification on a Zeba spin column 40K (Thermo Fisher Scientific). This material was used to load streptavidin functionalized BLI sensors (SA sensors; Fortebio) in an Octet RED 384 device (Fortebio) at high density (5 nm BLI signal). C3bBb was assembled by exposing the C3b loaded sensors to different recombinant factor B variants (i.e. wild type SEQ ID NO: 1; D279G variant of SEQ ID NO: 2; D279G K350N M458I triple variant of SEQ ID NO: 3) in presence of 54 nM plasma purified factor D (Complement Technology) in HBS-T (Mg) buffer (150 mM NaCl, 10 mM HEPES, 1 mM MgCl2, 0.005% Tween20. pH 7.4) at 22° C. […]
After subtraction of the signal recorded from parallel reference sensors omitting the C3b loading step and subtraction of a control sensor omitting factor B and factor D, data of the dissociation phase was fitted to the double exponential ((A*exp(((−1)*B)*x)))+(C*exp(((−1)*D)*x)) using XLfit (IDBS software), allowing for heterogeneity in the assembled convertase population. […]

T1 sequence (P01024 23-667 limits assumed, chain 1 of 2): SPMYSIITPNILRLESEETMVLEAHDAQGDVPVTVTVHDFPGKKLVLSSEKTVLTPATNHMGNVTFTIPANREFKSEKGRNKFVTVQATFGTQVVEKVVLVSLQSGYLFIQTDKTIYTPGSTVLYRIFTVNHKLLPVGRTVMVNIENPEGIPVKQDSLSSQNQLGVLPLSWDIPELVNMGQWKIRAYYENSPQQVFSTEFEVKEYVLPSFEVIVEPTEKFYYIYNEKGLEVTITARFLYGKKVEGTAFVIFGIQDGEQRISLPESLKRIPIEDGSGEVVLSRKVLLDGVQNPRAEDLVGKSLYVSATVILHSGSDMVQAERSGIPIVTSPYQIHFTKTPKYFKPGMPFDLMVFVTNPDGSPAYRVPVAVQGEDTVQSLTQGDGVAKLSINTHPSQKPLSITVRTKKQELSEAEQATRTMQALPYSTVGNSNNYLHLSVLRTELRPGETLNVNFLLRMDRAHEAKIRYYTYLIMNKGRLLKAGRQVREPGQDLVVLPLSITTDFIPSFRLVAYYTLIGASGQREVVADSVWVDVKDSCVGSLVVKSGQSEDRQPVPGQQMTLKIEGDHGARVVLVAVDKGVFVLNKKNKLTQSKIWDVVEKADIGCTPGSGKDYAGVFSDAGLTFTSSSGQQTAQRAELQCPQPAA
T1 sequence (P01024 749-1663 limits assumed, chain 2 of 2): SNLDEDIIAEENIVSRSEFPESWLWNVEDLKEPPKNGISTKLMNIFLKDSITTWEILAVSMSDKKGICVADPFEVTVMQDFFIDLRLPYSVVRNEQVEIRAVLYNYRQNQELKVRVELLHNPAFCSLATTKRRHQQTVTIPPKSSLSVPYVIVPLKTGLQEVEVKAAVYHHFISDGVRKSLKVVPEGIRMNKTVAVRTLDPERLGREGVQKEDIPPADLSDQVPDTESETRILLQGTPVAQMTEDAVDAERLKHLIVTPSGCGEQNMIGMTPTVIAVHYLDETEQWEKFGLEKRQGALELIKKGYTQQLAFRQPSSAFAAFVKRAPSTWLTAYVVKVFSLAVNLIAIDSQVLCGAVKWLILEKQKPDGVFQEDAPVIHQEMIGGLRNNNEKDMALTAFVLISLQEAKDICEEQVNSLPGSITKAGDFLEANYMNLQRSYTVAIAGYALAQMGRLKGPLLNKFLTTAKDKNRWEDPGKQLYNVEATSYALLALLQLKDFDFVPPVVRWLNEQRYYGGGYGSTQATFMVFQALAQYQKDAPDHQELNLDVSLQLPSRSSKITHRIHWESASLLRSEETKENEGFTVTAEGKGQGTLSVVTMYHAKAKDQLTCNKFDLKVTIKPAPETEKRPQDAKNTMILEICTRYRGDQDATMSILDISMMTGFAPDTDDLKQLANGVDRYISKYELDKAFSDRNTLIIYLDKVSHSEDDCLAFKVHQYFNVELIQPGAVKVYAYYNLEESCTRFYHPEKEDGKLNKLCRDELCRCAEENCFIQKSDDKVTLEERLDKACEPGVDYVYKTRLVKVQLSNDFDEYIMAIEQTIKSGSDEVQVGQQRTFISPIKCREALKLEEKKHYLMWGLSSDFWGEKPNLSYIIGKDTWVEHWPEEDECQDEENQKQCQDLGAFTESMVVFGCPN

Row | Binder | prevalence of main species [1] [%] | t ½ [1] [h] | prevalence of main species [2] [%] | t ½ [2] [h]
1 | B1 | 100 | 0.483 |  | 
2 | B2 | 100 | 3.3 | 97 | 1.05
